Laboratory results: the RNAGym collection of RNA variant scans (doi:10.7554/elife.90254)
The source gives no read counts; variants with many changes may rest on few reads.

B1: LINE1-full (parent)
chain: UACGUAGGUGGUUUUCCCCUGAUAGUGCUAAGGGGGCCUGGAAGUUUGGACUGGGCAGAGCUCAACACAGCGUGGCAAAGUGGCUGUGGCUAGACUGCCUCUCUGGAUUCCUCGUCACUCAGCAGGGCAUCUCUGAGAGAAAUGCC

Variants of: B1
Test: self-cleavage, relative activity (ratio to wild type); higher = more cleavage; in vitro, sequencing; the parent is a self-cleaving ribozyme
U29C U119C U132C gave a self-cleavage of 1.7.
Work on U46C A59G C61U U96A yielded a self-cleavage of 0.04.
Work on A22G U46A A140G yielded a self-cleavage of 1.56.
U9A A57U U62C A94G U108C C113U A140G C145U showed a self-cleavage of 0.
U62C U112C A121C gave a self-cleavage of 0.
In the case of U47A A69U U104A, the self-cleavage is reported as 0.02.
U14C U85C A136G A140G gave a self-cleavage of 0.34.
U130C C131A U143G showed a self-cleavage of 1.2.
In the case of A2C U23C U47C U85A U112C, the self-cleavage is reported as 0.78.
For A2G U96C A117U, the self-cleavage was 0.25.
With U26C U39A A59G A65G G88A C120U A136G the self-cleavage was 0.
Work on C17U U26A A78C A79U G114A yielded a self-cleavage of 1.15.
Work on U20A A92G U104A U132C yielded a self-cleavage of 0.16.
For U15C U46C A64G A69C, the self-cleavage was 0.
For G25U U47A G55A U96C A141G, the self-cleavage was 0.03.
Work on U20C G34U U91C A136U yielded a self-cleavage of 0.65.
For U23A A107G A142G, the self-cleavage was 2.13.
For U9G U12A U13C G60A C131A, the self-cleavage was 0.
For U62C A67G U85C U96A, the self-cleavage was 0.
Variant A65G A92U U134C has a self-cleavage of 0.07.
For U26A U47A U112C, the self-cleavage was 0.75.
For U81A U85A C90A, the self-cleavage was 0.13.
A59G A77U U85C A121U gave a self-cleavage of 0.
Variant G4C A50U A79U A129G has a self-cleavage of 1.4.
U15C U104C A141G showed a self-cleavage of 1.68.
For A78C C116U U119C, the self-cleavage was 2.
Work on C28A U45C G70A A79G yielded a self-cleavage of 0.1.
C51A A140G A142G showed a self-cleavage of 1.64.
U26C U73A A78G showed a self-cleavage of 0.4.
Variant A22U A42U A78G U100C has a self-cleavage of 1.15.
With U5C U14C A94U U109C the self-cleavage was 0.86.
Variant U96C G126A A142G has a self-cleavage of 0.14.
For G36U A94G A107G, the self-cleavage was 0.1.
U13A A57U A79G U91C G125C gave a self-cleavage of 0.09.
Work on U29C A94U U132A yielded a self-cleavage of 0.41.
Work on U5A U13C C84U U112C yielded a self-cleavage of 0.23.
In the case of G53U C120A U130C A140G, the self-cleavage is reported as 1.84.
In the case of A50G U96A U130C, the self-cleavage is reported as 0.
With U5C U47A C61U the self-cleavage was 0.04.
For U81A U115A U134C A140G, the self-cleavage was 2.87.
For U1C A22U A57G U112C G125U, the self-cleavage was 0.68.
Variant C3U U12C U47A C118U has a self-cleavage of 0.67.
Work on A2G G40A U46C U52A U112C A138G yielded a self-cleavage of 0.35.
U85C A124G U132A gave a self-cleavage of 0.
For A50U U100C A124G, the self-cleavage was 1.56.
Variant U14A U85C A142U has a self-cleavage of 0.09.
In the case of U9C A67G U96A A140G, the self-cleavage is reported as 0.19.
Variant U15C U87A C110A A142G has a self-cleavage of 0.09.
A22G U73C U96A A138G gave a self-cleavage of 0.
Work on U73A A77U U96C yielded a self-cleavage of 0.
With U62C C103G G125C the self-cleavage was 0.06.
A78G A79G A136G gave a self-cleavage of 1.03.
Work on U13C G40A A79U yielded a self-cleavage of 1.1.
In the case of A77G A117G A142G, the self-cleavage is reported as 0.
With U12C U39A A107G the self-cleavage was 1.31.
Work on U15C U73C G88A U96C yielded a self-cleavage of 0.2.
Variant G10A A50U U96A has a self-cleavage of 0.05.
U9C A43G U62A A78G showed a self-cleavage of 0.
For U47C G82A U119C A140G, the self-cleavage was 1.95.
For U13C U20C U73C, the self-cleavage was 1.39.
U14C G44A C71G showed a self-cleavage of 0.46.
Work on U15A G86A A124G yielded a self-cleavage of 0.01.
In the case of U62A A67G G86A, the self-cleavage is reported as 0.05.
Variant A65G A77C G88A U109C A121G has a self-cleavage of 0.2.
Variant U47A U62A A117G has a self-cleavage of 0.05.
Work on U12G A64U U115C yielded a self-cleavage of 0.66.
In the case of U46C U102C U134A, the self-cleavage is reported as 1.93.
For A6G G33A U62A, the self-cleavage was 0.11.
Variant U14C U104C U130C U132A has a self-cleavage of 1.97.
Variant G27U U46A G75U C76U has a self-cleavage of 1.02.
In the case of U23C G32C A129U, the self-cleavage is reported as 1.4.
U39A A64G G75U showed a self-cleavage of 0.13.
Work on U9G A50G G54A A136U G144U yielded a self-cleavage of 0.17.
For U13C U45C U108C, the self-cleavage was 1.45.
Variant U52G A107U U112C U119A A141U has a self-cleavage of 0.39.
Variant A64G G88A U109A has a self-cleavage of 0.08.
Variant U46C A50U A107G has a self-cleavage of 0.79.
Work on U14C G53A U96C U134C A142C yielded a self-cleavage of 0.06.
Variant U5C U134C A142G has a self-cleavage of 0.88.
With A2G A6G A67G the self-cleavage was 0.
U15A U39C C76U A94U U100A gave a self-cleavage of 0.19.
In the case of U26C G72A A129U U132C, the self-cleavage is reported as 1.67.
A94G A129U A140G showed a self-cleavage of 0.38.
With A67G U73A A124U U130C the self-cleavage was 0.48.
Work on A22G A57G G70A yielded a self-cleavage of 0.09.
A22C U96C A138C showed a self-cleavage of 0.
G88A U104A U109A gave a self-cleavage of 0.06.
In the case of U14C U46C U52A U102A A141U, the self-cleavage is reported as 0.87.
With U85A U96A U134C the self-cleavage was 0.19.
With U13A A57G U109G the self-cleavage was 0.
For A43C U100A A124U, the self-cleavage was 0.71.
Work on U87A A94U A138G yielded a self-cleavage of 0.07.
For U39C A59G U112C, the self-cleavage was 0.39.
In the case of A30U A77G U115C A142G, the self-cleavage is reported as 0.92.
In the case of A22G U130C A136G, the self-cleavage is reported as 0.66.
U9C A94C G125A showed a self-cleavage of 0.08.
G25A U108C A138G showed a self-cleavage of 1.34.
A65G U96A A107G A141G gave a self-cleavage of 0.13.
Variant U5C A22U U39C A65G has a self-cleavage of 0.
Variant U20C U26A A65G A124U has a self-cleavage of 0.
For U5C U13C G70A A124G, the self-cleavage was 0.
Work on A30G U46C A65U yielded a self-cleavage of 0.21.
Variant U73C A138U A142G has a self-cleavage of 2.8.
Variant U5C A121G A142G has a self-cleavage of 1.23.
G8A U81A A107G U134A showed a self-cleavage of 1.63.
Variant A67G U85C C99U A129U A138G A142G has a self-cleavage of 0.04.
For U15A U45G U85A U87A, the self-cleavage was 0.09.
A22G U73A U108C showed a self-cleavage of 1.7.
In the case of U47C A59G A79G, the self-cleavage is reported as 0.4.
Variant U26A C38U A136G has a self-cleavage of 1.24.
A57U U102C G126U gave a self-cleavage of 0.1.
With A6G A67U U108C A129G A141G the self-cleavage was 0.54.
For A2G A138G A142G, the self-cleavage was 0.92.
Work on A2G U12G U46C U102C yielded a self-cleavage of 1.19.
Variant U9C U47C U87C C120U U130C A136G has a self-cleavage of 0.86.
In the case of U62C A69U C120U, the self-cleavage is reported as 0.01.
In the case of U12C A69G G88A U100G, the self-cleavage is reported as 0.
In the case of U73A U81C A129G, the self-cleavage is reported as 1.51.
For A42G C51U A140G, the self-cleavage was 0.89.
A2G U12A C19U G44U gave a self-cleavage of 0.21.
With U1C U14C A78U A138G the self-cleavage was 1.16.
In the case of G4A U87C U100A U130A, the self-cleavage is reported as 0.07.
For G7A U26G U29A A92G, the self-cleavage was 0.35.
U1A A22G A59G C123U showed a self-cleavage of 0.33.
A42G A77G U81C C118U showed a self-cleavage of 1.7.
With A6G A42G U73A the self-cleavage was 2.3.
G4A U112A A140U gave a self-cleavage of 1.24.
Variant U9C U47A A94U U100A U115A has a self-cleavage of 0.25.
Work on U12G U15C U119G yielded a self-cleavage of 0.66.
Work on U15C U20C A107G yielded a self-cleavage of 1.43.
Work on U13C U47C U115C yielded a self-cleavage of 1.41.
In the case of A31U A57G U87C, the self-cleavage is reported as 1.02.
Variant U14C U46C A69G has a self-cleavage of 0.19.
With U1C U14A U119C the self-cleavage was 1.17.
Work on U81C G88A U134A yielded a self-cleavage of 0.02.
In the case of A24G A67U U104A, the self-cleavage is reported as 0.2.
With A65G U112C A136G the self-cleavage was 0.17.
Work on C128U A129G A141G yielded a self-cleavage of 0.67.
Work on G8A A22G A24U A59U U91A U96C yielded a self-cleavage of 0.2.
For U5C A78U U87A U108C A138U, the self-cleavage was 0.48.
U14C U85C A94C showed a self-cleavage of 0.19.
With A50G A140G A141G the self-cleavage was 0.92.
Variant U26G G48A U96C has a self-cleavage of 0.08.
For C56U A136U A138G, the self-cleavage was 0.33.
Variant U14C A43G U91C U100A has a self-cleavage of 0.19.
Variant G7A U26C A50U U96A U119C has a self-cleavage of 0.
Work on A67G U132C A140G A142G yielded a self-cleavage of 0.
Variant U12C U23C A59U has a self-cleavage of 1.29.
With U13C A64G A107G U115C the self-cleavage was 0.57.
With U73A C99U A142G the self-cleavage was 0.55.
Work on U14A U112A U115G yielded a self-cleavage of 1.46.
U104C A129G C145U showed a self-cleavage of 2.94.
A59G G114A A136G showed a self-cleavage of 0.08.
In the case of A42G U46C A77U, the self-cleavage is reported as 0.46.
For U62C U87C U130C, the self-cleavage was 0.47.
In the case of U26C U109G U143A, the self-cleavage is reported as 0.44.
A6G A43G U47C gave a self-cleavage of 2.04.
In the case of U39A U134C A142G, the self-cleavage is reported as 1.51.
U15A A78C A79G gave a self-cleavage of 0.74.
Work on U46C A79G A129G U132C yielded a self-cleavage of 0.
In the case of A6G A42G U45A U62C U81A, the self-cleavage is reported as 0.09.
With U102C G122A A138G the self-cleavage was 1.06.
In the case of A69G U73C C95U, the self-cleavage is reported as 0.25.
Variant U12C U87C A141G U143G has a self-cleavage of 0.13.
U9A U23C G54A A94U A117G gave a self-cleavage of 0.44.
Work on U46C U52A U73C U132C A142U yielded a self-cleavage of 2.76.
Variant U9G U132C A142U has a self-cleavage of 0.59.
